Experimental data as given in PubChem BioAssay AID1240 (Sanford-Burnham Center for Chemical Genomics, 2008).
Screen size: about 50,000 compounds; about 800 (1.6%) showed an effect of 50% or more. The list shows a part of the results.

Molecular target: Bcl-2-like protein 10 (Homo sapiens) (UniProt Q9HD36)
Test: Phenotype converters, Bcl-B/TR3 peptide binding displacement, primary biochemical FP (AID 1240);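 note: 0% = Bcl-B with tracer peptide and DMSO and 100% = tracer peptide lacking Bcl-B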
Conditions: GST-Bcl-B / FITC-TR3 peptide fluorescence polarization; stronger effect = higher value; compound at 3.75 mg/L

UniProt Q9HD36, sequence (Q9HD36 whole entry, looked up): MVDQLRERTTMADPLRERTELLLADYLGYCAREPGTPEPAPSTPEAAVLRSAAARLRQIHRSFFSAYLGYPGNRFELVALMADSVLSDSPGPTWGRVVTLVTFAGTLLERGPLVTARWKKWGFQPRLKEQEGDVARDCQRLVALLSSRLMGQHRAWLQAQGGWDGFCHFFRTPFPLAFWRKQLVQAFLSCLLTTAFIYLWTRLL

Compound | displacement [%]
CCc1ccc(NC(=O)COc2ccc(C)c(C)c2)cc1 | -2.9
Cc1ccccc1OCC(O)CNS(=O)(=O)c1ccccc1C(=O)O (stereo not given) | -13
CSC1=C(C#N)C(c2ccc(Cl)cc2)C2=C(CC(C)(C)CC2=O)N1 (stereo not given) | -9.2
Cc1cccc(C(=O)N/C(=C/c2ccc(Br)cc2)C(=O)NN)c1 | -13.9
O=C(CN(c1ccc(F)cc1)S(=O)(=O)c1ccccc1)Nc1ccccc1Br | -0.6
COCCCNC(=O)Cc1ccc(OC)c(OC)c1 | 10
COc1ccc(C2/C(=C(/O)c3ccc(Cl)cc3)C(=O)C(=O)N2CCCC(=O)O)cc1 (stereo not given) | 3.2
CCOc1cccc(C(=O)Nc2nnc(-c3cccc(OCC)c3)s2)c1 | 8.7
COc1cc2c(cc1NC(=O)c1c(-c3ccccc3Cl)noc1C)oc1ccccc12 | -0.9
Cc1ccc(C(=O)N/C(=C\c2cccc(Oc3ccccc3)c2)C(=O)NCCN2CCOCC2)cc1 | 7.8
CCCN1C(=O)/C(=C/c2nc3ccccc3c(=O)n2Cc2ccccc2)c2ccccc21 | -8.3
Cc1ccccc1C(=O)NN1C(=O)/C(=C\c2ccc(N(C)C)cc2)SC1=S | -58.6
CCC1CCc2c(sc(NC(=O)COc3ccc(Cl)cc3Cl)c2C(N)=O)C1 (stereo not given) | 12.1
NC(=O)c1ccc(NC(=O)c2cccc(I)c2)cc1 | -5.7
COc1ccc(/C=N/n2cnnc2SC)cc1OC | 2.8
O=C(O)CCN1C(=O)c2ccc(Oc3ccc([N+](=O)[O-])cc3)cc2C1=O | -20.9
Cc1ccc2nc(NC(=O)C3CCCN3C(=O)OC(C)(C)C)sc2c1 (stereo not given) | 8
CC(CN1CCCCC1)C(=O)c1ccccc1 (stereo not given) | 10
COc1cccc(/C=N/Nc2nc(N3CCCCC3)nc(N3CCCCC3)n2)c1O | 3.8
COc1ccc(C(=O)Nc2cc(C(=O)O)cc(C(=O)O)c2)cc1 | 28.6
O=C(Nc1nc(-c2ccc([N+](=O)[O-])cc2)cs1)c1ccc(Cl)cc1 | 8.7
O=C1C(=O)N(c2cccc([N+](=O)[O-])c2)C(c2ccccc2F)/C1=C(/O)c1ccccc1 (stereo not given) | 11.1

Compound | displacement [%]
Cc1cc2nc3s/c(=C/c4cn[nH]c4-c4ccccc4)c(=O)n3c2cc1C | 11.7
COc1ccc(N=Cc2c(O)n(-c3cc(OC)ccc3OC)c(=O)[nH]c2=O)cc1 | 103
Cc1nn(C2CCCCC2)c(N)c1C#N | -5.4
CCN1CCN(C(=O)C2(C)CCCCC2)CC1 | -7.1
Cc1cc(C(=O)NCc2ccco2)ccc1[N+](=O)[O-] | 3.8
COc1ccc(CNC(=O)c2ccc(C3SCC(=O)N3Cc3ccccc3)cc2)cc1 (stereo not given) | -8.8
CCN1CCN(c2nc(-c3ccc(Cl)cc3)nc3ccccc23)CC1 | 2
Cc1ccc(C)c(NC(=S)NC(=O)c2ccco2)c1 | 2
Cc1cccc(OCCCCCn2ccnc2)c1C | -5.9
CCOc1ccccc1N1CCN(C(=O)/C=C/c2ccc(C(C)(C)C)cc2)CC1 | -3.8
COc1ccc(-c2noc(COc3ccc(C)cc3Br)n2)cc1OC | 0
O=C(Nc1ccc(Cl)cc1)c1ccc(I)cc1 | 9.1
COc1ccccc1NC1C=CC(=O)C1Nc1ccccc1OC (stereo not given) | 8
O=C(NN=C1CCC(c2ccccc2)CC1)c1ccccc1I (stereo not given) | 4.8
COc1ccc(CNCc2cc(OC)c(OC)cc2OC)cc1 | 4.2
O=C(NCCN1CCN(S(=O)(=O)c2ccc3ccccc3c2)CC1)C(=O)Nc1ccccc1 | 11.3
CC(=O)Nc1cc(C23CC4CC(CC(C4)C2)C3)ccc1C | -3.3
O=C(CSc1nc2ccccc2o1)Nc1ncccn1 | -2.6
CC(C)c1ccccc1NC(=O)COc1ccc2ccccc2c1 | -6.9
CCOc1cc(C=O)ccc1OCCN1CCOCC1 | 13.5
CCc1c(C)nc2ccc(Br)cc2c1SCC(=O)O | 1
COc1ccc(C2Nc3ccccc3C(=O)N2Cc2ccco2)cc1OC (stereo not given) | 12.9

Compound | displacement [%]
COc1cccc(/C=N/NC(=O)CSc2ccc3ccccc3n2)c1 | -7.5
CC(=O)N/N=C\c1cc(C)cc(/C=N\NC(C)=O)c1O | 41.7
O=C(/C=C/c1ccc([N+](=O)[O-])cc1)Nc1ccc(S(=O)(=O)N2CCOCC2)cc1 | 6.3
O=C(NC1CCCCCCC1)c1cnccn1 | -8.3
O=[N+]([O-])c1ccc(N2CCN(c3ccc(C(F)(F)F)cc3[N+](=O)[O-])CC2)cc1NCc1ccccc1 | -9.4
O=C(Nc1ccc(I)cc1Cl)c1ccc([N+](=O)[O-])cc1 | -1.1
COc1cc(CN2CCN(Cc3ccccc3Br)CC2)cc(OC)c1O | -1.3
O=C(O)c1ccc(-n2c(O)c(/C=C3\C=Nc4ccccc43)sc2=S)cc1 | -137
O=C1NN(c2ccccc2)C(=O)/C1=C/c1ccc(OCc2ccc(F)cc2)cc1 | -11.9
COc1ccc(/C=N/NC(=O)Cc2nnc(N)s2)cc1OC | 35.4
COC(=O)CSc1nc2sc3c(c2c(=O)n1-c1ccc(OC)cc1)CCN(Cc1ccccc1)C3 | -37.8
COc1ccc(CC(=O)Nc2ccc(Cl)cc2)cc1OC | 8.5
Cc1c(C(=O)Nc2cccc(C(=O)O)c2)cccc1[N+](=O)[O-] | 3.8
COc1ccc(-c2cc(C(F)(F)F)n3nc(C(=O)O)c(Cl)c3n2)cc1 | 3.2
Cc1nn2c(C(F)(F)F)cc(-c3ccc(Cl)cc3)nc2c1C(=O)NCc1ccco1 | -11.4
O=c1oc2c(CN3CCOCC3)c(O)ccc2cc1-c1nc2ccccc2[nH]1 | 139
CCOC(=O)C1=C(O)/C(=C/c2cc(C)n(-c3cccc(Cl)c3)c2C)N=C1C | 20.3
Cc1ccccc1N1C(=O)C2C3c4ccccc4C(C)(c4ccccc43)C2C1=O (stereo not given) | 1.4
CC(=O)c1c(C)oc2ccc(OC(=O)c3cccc(Cl)c3)cc12 | 9.1
CC(=O)Nc1cccc(/C(C)=N/N=C2/NC(=O)C(CC(=O)Nc3ccc(C(=O)O)cc3)S2)c1 (stereo not given) | 10.5
Cc1cc(=O)oc2cc(OCC(=O)OC(C)(C)C)ccc12 | -7.7
Clc1ccc(N2COc3ccc4ccccc4c3C2)cc1 | 26.7

Compound | displacement [%]
COc1cc(/C=C2\C(=O)NC(=S)N(c3ccc(Br)cc3)C2=O)ccc1OCC(=O)O | 2.2
O=C(NC(Cc1ccccc1)C(=O)Nc1ccccc1)OCc1ccccc1 (stereo not given) | 9.4
COc1ccc(Br)cc1C(=O)Nc1ccc(-c2nc3ncccc3o2)cc1 | 5.4
Cc1ccc(C(=O)N/N=C\c2cc(Cc3ccccc3Cl)ccc2O)cn1 | -8.8
CCCC(C)NS(=O)(=O)c1ccc(Cl)cc1 (stereo not given) | -7.9
O=C(/C=C/c1cccc([N+](=O)[O-])c1)Nc1ccc2oc(-c3ccccc3)nc2c1 | -6.5
COC(=O)c1sc(NC(=O)C(Sc2ccccc2)c2ccccc2)c(C#N)c1C (stereo not given) | 3.3
CC1=CC(C)C2C(=O)N(c3ccccc3)C(=O)C2C1 (stereo not given) | -0.9
O=C(O)c1cccc(-c2ccc(/C=C3\SC(=O)N(c4ccc(Cl)cc4)C3=O)o2)c1 | -0.6
Cc1ccccc1C(=O)Nc1nc2ccc(Br)cc2s1 | -3.1
Cc1ccc(N2CC(C(=O)N/N=C/c3c(F)cccc3Cl)CC2=O)cc1 (stereo not given) | -0.4
CCOC(=O)C1=C(C)N=c2s/c(=C\c3cccc(OC)c3O)c(=O)n2C1c1ccccc1 (stereo not given) | -0.2
O=C(Nc1ccccc1F)c1ccn(C(=O)c2cccc(Cl)c2)n1 | 4.8
CCOc1ccc(CNc2ccc3c(c2)ncn3C)cc1 | -2.7
CCc1ccc(-c2nc3cc(NC(=O)COc4ccc(OC)cc4)ccc3o2)cc1 | 4.2
CCCc1nc(C)c(-c2ccc(OC)c(OC)c2)c(=O)[nH]1 | -13.4
COc1ccc(/C=C/C(=O)N2CCN(CCN3C(=O)c4cccc5cccc(c45)C3=O)CC2)cc1 | 35
O=C(CN(c1ccc(F)cc1)S(=O)(=O)c1ccccc1)Nc1cccc(C(F)(F)F)c1 | 4.5
CCOC(=O)c1c(N/C=C(\C=O)c2nc3cc(Cl)ccc3o2)sc2c1CCCC2 | -5.9
Cc1ccc(COc2ccc3c4c(c(=O)oc3c2)CCCC4)cc1 | 7.5
O=C(Nc1nccs1)c1ccc2c(c1)C(=O)N(c1cccc(C(=O)c3ccccc3)c1)C2=O | 1.3
Cc1sc(/N=C/c2cc(Br)ccc2O)c(C#N)c1C | 2.2

Compound | displacement [%]
O=C(c1cccnc1)N1CCN(S(=O)(=O)c2ccccc2)CC1 | -7.2
CCNC(=S)Nc1ccccc1Cl | -7.9
CCC1=NN2C(=N)/C(=C/c3cccs3)C(=O)N=C2S1 | 13.9
CCOC(=O)c1c(C)n(-c2ccccc2OC)c2c1cc(O)c1ccccc12 | 12.8
CCOc1cc(/C=c2\sc3nc4cc(C)c(C)cc4n3c2=O)ccc1O | -1.4
CCCN(CCC)C1=CC(=O)C(C(C)(C)C)=CC1=O | 0.8
Cc1ccc(Br)cc1S(=O)(=O)N1CCN(C)CC1 | 13.1
CC(C)CNC(=O)Nc1cccc(Cl)c1 | 2.8
Cc1ccc(N2C(=O)/C(=C/c3ccccc3C(=O)O)SC2=S)c(C)c1 | 2.3
Cc1c(NC(=O)c2ccc(CN(c3ccccc3)S(C)(=O)=O)cc2)c(=O)n(-c2ccccc2)n1C | 11.9
CCCOc1ccc(-c2nnc(NC(=O)Nc3ccccc3)s2)cc1 | 6.6
Cc1cc(C)cc(NC(=O)c2ccc(I)cc2)c1 | 15
CCOC(=O)c1c(NC(=O)c2ccc(Cl)cc2)sc2c1CC(C)(C)OC2 | -7.1
O=C(Nc1ccc(Br)cn1)c1cc2n(n1)C(C(F)(F)F)CC(c1cccs1)N2 (stereo not given) | -6.1
Clc1cccc(Cl)c1OCCCN1CCCCC1 | 7.6
COC(=O)c1c(-c2ccc(Cl)cc2)csc1NC(=O)CCCC(=O)O | 2.8
COc1ccccc1C(=O)N1CCN(Cc2ccccc2C)CC1 | -3.5
O=C1C2C3C=CC(C4CC34)C2C(=O)N1c1cccnc1 (stereo not given) | 1.3
COCCN1C(=O)C(=O)/C(=C(/O)c2ccccc2)C1c1ccc([N+](=O)[O-])cc1 (stereo not given) | -18.1
Cc1ccc(Cl)c(OCCCCNC(C)(C)C)c1 | -19.3
COc1ccc2c(C)c(C(=O)O)oc2c1OC | 18.9
CN1C(=O)C2(OCCO2)c2cc([N+](=O)[O-])ccc21 | -5.7
